# Reference: the supplement of paper PMC4604168 (melanoma cell lines)
# The other results are listed elsewhere or left out. Single values are uncertain, as repeats are few or missing.
# Tests used:
# Experiment in all cases: cell count relative to DMSO control; melanoma cells; higher = more viable cells
# Conditions in all cases: library dose: standard library concentration; 72 h
# [1] = test system: G361
# [2] = test system: IPC-298
# [3] = test system: IST-MEL1
# [4] = test system: LB2518-MEL
# [5] = test system: LOXIMVI
# [6] = test system: MEL-HO
# [7] = test system: MZ2-MEL
# [8] = test system: MeWo
# [9] = test system: RPMI7951
# [10] = test system: RVH-421
# [11] = test system: SkMel28
# [12] = test system: SkMel2
# [13] = test system: SkMel30
# [14] = test system: SkMel5
# [15] = test system: UACC257
# [16] = test system: UACC62
# [17] = test system: WM115
# [18] = test system: WM1716
# [19] = test system: WM1745
# [20] = test system: WM3526
# 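Also: cells treated in 1,536-well plates, then fixed and DAPI-stained, with nuclei counted from automated high-throughput microscope images.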
SMILES,cell count [1],cell count [2],cell count [3],cell count [4],cell count [5],cell count [6],cell count [7],cell count [8],cell count [9],cell count [10],cell count [11],cell count [12],cell count [13],cell count [14],cell count [15],cell count [16],cell count [17],cell count [18],cell count [19],cell count [20]
"COc1cc([C@@H]2c3cc4c(cc3[C@@H](O[C@@H]3O[C@@H]5CO[C@@H](C)O[C@H]5[C@H](O)[C@H]3O)[C@H]3COC(=O)[C@H]23)OCO4)cc(OC)c1O [etoposide] + C[C@@H](N)c1ccc(C(=O)Nc2ccnc3[nH]ccc23)cc1 [RKI983] (first compound 0.1 µM, partner dose 2 µM)",96.6%,59.7%,92.7%,104%,55.2%,59.1%,31.1%,64.3%,48.2%,54.9%,75.4%,55.5%,82.8%,53.7%,55.1%,41.9%,66.5%,37.9%,38.6%,87.2%
"C[C@]1(O)C[C@@H](c2nc(-c3ccc4ccc(-c5ccccc5)nc4c3)c3c(N)nccn32)C1 + NCC(=O)Nc1ccc(-n2nc(C(F)(F)F)cc2-c2ccc3c(ccc4ccccc43)c2)cc1 [OSU03012] (first compound 2 µM, partner dose 5 µM)",41.4%,53.5%,71.3%,77.8%,71.5%,73.1%,75.6%,76.2%,85%,76.8%,28.6%,42.7%,41.4%,60.6%,76.2%,65.6%,76.8%,86%,24%,38.9%
"C[C@]1(O)C[C@@H](c2nc(-c3ccc4ccc(-c5ccccc5)nc4c3)c3c(N)nccn32)C1 + CS(=O)(=O)CCNCc1ccc(-c2ccc3ncnc(Nc4ccc(OCc5cccc(F)c5)c(Cl)c4)c3c2)o1 [lapatinib] (first compound 2 µM, partner dose 4 µM)",50.5%,80.2%,78.7%,79.4%,70.7%,74.9%,26.1%,55.5%,60.5%,109%,61.3%,67.6%,75.5%,42.3%,93.8%,49.5%,81.3%,91.9%,60.5%,67.7%
"COc1cc([C@@H]2c3cc4c(cc3[C@@H](O[C@@H]3O[C@@H]5CO[C@@H](C)O[C@H]5[C@H](O)[C@H]3O)[C@H]3COC(=O)[C@H]23)OCO4)cc(OC)c1O [etoposide] + CO[C@H]1C[C@@H]2CC[C@@H](C)[C@@](O)(O2)C(=O)C(=O)N2CCCC[C@H]2C(=O)O[C@H]([C@H](C)C[C@@H]2CC[C@@H](OCCO)[C@H](OC)C2)CC(=O)[C@H](C)/C=C(\C)[C@@H](O)[C@@H](OC)C(=O)[C@H](C)C[C@H](C)/C=C/C=C/C=C/1C [everolimus] (first compound 0.1 µM, partner dose 0.1 µM)",76.8%,67.7%,82.7%,78.1%,68.7%,70.9%,74.1%,72.1%,83.1%,374%,40%,74.2%,66.7%,59.1%,72.4%,59.7%,69.1%,53.8%,82.3%,72.1%
"C[C@]1(O)C[C@@H](c2nc(-c3ccc4ccc(-c5ccccc5)nc4c3)c3c(N)nccn32)C1 + OCc1c[nH]c2ccccc12 [Indole-3-carbinol] (first compound 2 µM, partner dose 4 µM)",92.9%,92.8%,97.8%,88.7%,89.7%,90.6%,75.4%,70.1%,85.1%,93.6%,84.3%,83.1%,102%,58.7%,87.6%,88.5%,84.7%,81.1%,66.2%,86.8%
"CCN(CC)CCNC(=O)c1c(C)[nH]c(/C=C2\C(=O)Nc3ccc(F)cc32)c1C [sunitinib] + C[C@]1(c2nc3c(C(N)=O)cccc3[nH]2)CCCN1 [Veliparib] (first compound 2 µM, partner dose 7 µM)",73.1%,70.6%,115%,64.5%,88.8%,79.3%,81.2%,59.5%,84%,107%,49.1%,55.5%,76%,56.4%,109%,52.5%,67.7%,87.1%,67.3%,75.9%
"COc1cc([C@@H]2c3cc4c(cc3[C@@H](O[C@@H]3O[C@@H]5CO[C@@H](C)O[C@H]5[C@H](O)[C@H]3O)[C@H]3COC(=O)[C@H]23)OCO4)cc(OC)c1O [etoposide] + CC(=O)O[C@@]12CO[C@@H]1C[C@H](O)[C@@]1(C)C(=O)[C@H](O)C3=C(C)[C@@H](OC(=O)[C@H](O)[C@@H](NC(=O)OC(C)(C)C)c4ccccc4)C[C@@](O)([C@@H](OC(=O)c4ccccc4)[C@H]21)C3(C)C [Docetaxel] (first compound 0.1 µM, partner dose 0.0005 µM)",16.4%,41.2%,50.8%,38.3%,104%,58.6%,55.2%,35.6%,35.2%,62.8%,12.1%,24%,52.2%,34%,57.5%,66.2%,35.9%,33.4%,56.5%,44.2%
"COc1cc([C@@H]2c3cc4c(cc3[C@@H](O[C@@H]3O[C@@H]5CO[C@@H](C)O[C@H]5[C@H](O)[C@H]3O)[C@H]3COC(=O)[C@H]23)OCO4)cc(OC)c1O [etoposide] + CO[C@@H]1[C@H](N(C)C(=O)c2ccccc2)C[C@H]2O[C@]1(C)n1c3ccccc3c3c4c(c5c6ccccc6n2c5c31)C(=O)NC4 [Midostaurin] (first compound 0.1 µM, partner dose 0.4 µM)",56.1%,65.5%,80.6%,63.9%,56.4%,87.1%,57.1%,71.9%,49.9%,78.4%,69.9%,54%,79.6%,56.2%,68.5%,67%,37.4%,40.9%,40.9%,76.2%
"COc1cc([C@@H]2c3cc4c(cc3[C@@H](O[C@@H]3O[C@@H]5CO[C@@H](C)O[C@H]5[C@H](O)[C@H]3O)[C@H]3COC(=O)[C@H]23)OCO4)cc(OC)c1O [etoposide] + C=CCNC1=C2C[C@@H](C)C[C@H](OC)[C@H](O)[C@@H](C)/C=C(\C)[C@H](OC(N)=O)[C@@H](OC)/C=C\C=C(/C)C(=O)NC(=CC1=O)C2=O [Tanespimycin] (first compound 0.1 µM, partner dose 0.01 µM)",73.3%,70.4%,68.5%,107%,130%,86.7%,73.5%,76.8%,33.5%,77.4%,58.9%,84.3%,96.2%,61.1%,92.5%,42.9%,29.3%,50.6%,52.4%,76.2%
"COc1cc([C@@H]2c3cc4c(cc3[C@@H](O[C@@H]3O[C@@H]5CO[C@@H](C)O[C@H]5[C@H](O)[C@H]3O)[C@H]3COC(=O)[C@H]23)OCO4)cc(OC)c1O [etoposide] + C[C@]1(c2nc3c(C(N)=O)cccc3[nH]2)CCCN1 [Veliparib] (first compound 0.1 µM, partner dose 7 µM)",107%,62.9%,90.4%,79.5%,80%,107%,72.3%,85.5%,90.2%,88.6%,73%,60.6%,102%,77.9%,79.3%,60.1%,71.4%,65.3%,80.4%,77%
"COc1cc([C@@H]2c3cc4c(cc3[C@@H](O[C@@H]3O[C@@H]5CO[C@@H](C)O[C@H]5[C@H](O)[C@H]3O)[C@H]3COC(=O)[C@H]23)OCO4)cc(OC)c1O [etoposide] + COc1ccc(Cl)c(Nc2nc3ccccc3nc2NS(=O)(=O)c2cccc(NC(=O)C(C)(C)N)c2)c1 [XL147] (first compound 0.1 µM, partner dose 4 µM)",81.2%,63%,67.9%,80.9%,95.7%,68.5%,66.9%,91.9%,118%,133%,76.6%,73.3%,105%,81.1%,81.8%,64.8%,86.4%,67.5%,81.7%,95.8%
"COc1cc([C@@H]2c3cc4c(cc3[C@@H](O[C@@H]3O[C@@H]5CO[C@@H](C)O[C@H]5[C@H](O)[C@H]3O)[C@H]3COC(=O)[C@H]23)OCO4)cc(OC)c1O [etoposide] + Cn1cnc2c(F)c(Nc3ccc(Br)cc3Cl)c(C(=O)NOCCO)cc21 [selumetinib] (first compound 0.1 µM, partner dose 0.075 µM)",68.1%,46.5%,91.4%,41.4%,109%,84.5%,52.4%,69.7%,131%,74.9%,39.3%,36.9%,42.5%,70.9%,90.2%,48.9%,61.3%,64.4%,88%,54.2%
"COc1cc([C@@H]2c3cc4c(cc3[C@@H](O[C@@H]3O[C@@H]5CO[C@@H](C)O[C@H]5[C@H](O)[C@H]3O)[C@H]3COC(=O)[C@H]23)OCO4)cc(OC)c1O [etoposide] + Cc1ccc(NC(=O)c2cccc(N(C)C)c2)cc1NC(=O)c1ccc(O)cc1 [ZM336372] (first compound 0.1 µM, partner dose 10 µM)",109%,83.4%,89.9%,93.7%,129%,97.1%,84.8%,81.5%,130%,81.2%,67.3%,72.5%,71.2%,81.1%,95.4%,73.9%,87.3%,80%,88.7%,94.3%
"Cn1cnc2c(F)c(Nc3ccc(Br)cc3Cl)c(C(=O)NOCCO)cc21 [selumetinib] + Cn1c(Nc2ccc(C(F)(F)F)cc2)nc2cc(Oc3ccnc(-c4ncc(C(F)(F)F)[nH]4)c3)ccc21 [CHIR265] (first compound 0.075 µM, partner dose 0.4 µM)",15.2%,28.8%,73%,12.4%,95%,43.5%,35.5%,47.1%,53.7%,48.7%,23.3%,1.28%,43.5%,35.9%,75.2%,38.4%,25.7%,48.4%,49.2%,26.6%
"CCN(CC)CCNC(=O)c1c(C)[nH]c(/C=C2\C(=O)Nc3ccc(F)cc32)c1C [sunitinib] + Cn1c(=O)n(-c2ccc(C(C)(C)C#N)cc2)c2c3cc(-c4cnc5ccccc5c4)ccc3ncc21 [NVP-BEZ235] (first compound 2 µM, partner dose 0.02 µM)",39.3%,68.5%,73.2%,64.5%,121%,58.4%,89.9%,55.6%,61.1%,84.1%,45.7%,78.4%,55.9%,28.8%,73.6%,43.5%,48.5%,73.8%,49.5%,59.3%
